Experimental findings from ChEMBL document CHEMBL4888484, “Replenishing the malaria drug discovery pipeline: Screening and hit evaluation of the MMV Hit Generation Library 1 (HGL1) against asexual blood stage Plasmodium falciparum ,using a nano luciferase reporter read-out” (2022) are described below.

Screen size: about 150,000 compounds; about 540 (0.36%) showed an effect of 50% or more. This is one part of the list.

The assay deals with Plasmodium falciparum. The assay can be described thus: Primary screen in NF54 nanoGlo assay, in single point, at 2uM, 72h; a lower Z score goes with more inhibition. The assay is classed as functional, Erythrocyte. Particulars: timepoint 72 hour.
On to `COc1cc2cc(CN[C@H]3CCOC(C)(C)C3)c(=O)n(Cc3ccc(C)cc3)c2cc1OC`, for which the % Inhibition – broadly, the drop in the measured response relative to a control, in per cent – is recorded as -1% and the Z score is 0.15.

Consider `C[C@H]1OCCN(Cc2ccc(C#N)cc2Br)[C@@H]1C(N)=O`, for which the “% Inhibition” value is -12% and the Z score was 1.55.

With `CCOC(=O)C1CCN(C(=O)c2ccccc2N(C)S(=O)(=O)c2ccccc2)CC1`, the “% Inhibition” value is 0% and the Z score is -0.06.

As for `CC(C)(C)OC(=O)NC1CCN(c2ncc(S(=O)(=O)c3ccccc3)c(N)n2)CC1`, the “% Inhibition” value is given as -2% and the Z score was 0.34.

As for `CCn1nc(C)c(-c2cc(C(=O)N3C[C@H]4CC[C@@H](O)[C@H]4C3)no2)c1C`, the “% Inhibition” value is on record as -15% and the Z score came out at 1.5.

On to `O=C(Nc1cc(S(=O)(=O)N2CCCC2)ccc1O)c1ccc2[nH]cnc2c1`, for which the “% Inhibition” value was -6% and the Z score turned out to be 0.84.

For `CN(C)c1cccc(C(=O)N2C[C@H](N(C)C)C[C@H]2CO)c1`, the “% Inhibition” value is -26% and the Z score stood at 2.3.

As for `CCOc1ccc(NC(=O)C2CCN(c3cc(-c4ccc(C)cc4)ncn3)CC2)cc1`, the “% Inhibition” value was -9% and the Z score was found to be 0.99.

On to `CCN1CCN(Cc2ncnn2-c2ccc(C)cc2)CC1`, for which the “% Inhibition” value is on record as -5% and the Z score came out at 1.11.

In the case of `O=C(NCc1ccc(F)cc1)c1nc(Cc2ccccc2)n(-c2ccccc2)n1`, the “% Inhibition” value is -18% and the Z score is 2.2.

With `CCCc1nc(-c2cc3cc(C)ccc3nc2NCc2cc(OC)ccc2OC)no1`, the “% Inhibition” value was found to be 5% and the Z score is given as -0.6.

`CCn1ncc(C)c1NC(=O)CN(C)CCOC`: the “% Inhibition” value is on record as -14% and the Z score stood at 1.29.

For `Cc1cccc(NC(=O)CC(C)(C)CC(=O)O)c1C`, the “% Inhibition” value came out at 37% and the Z score is reported as -1.21.

`Cc1cc(F)cc(N2C(=O)N[C@@H](C3CCOCC3)C2=O)c1`: the “% Inhibition” value is reported as -5% and the Z score is recorded as 0.62.

Regarding `O=C(CN1C(=O)c2ccccc2C1=O)N1CC(=O)N2CCc3ccccc3[C@@H]2C1`, the “% Inhibition” value is reported as 65% and the Z score was -8.85.

In the case of `O=C(c1cccn1C1CC1)N1CCC(F)(F)CC1`, the “% Inhibition” value is recorded as -4% and the Z score stood at 0.7.

Take `Cc1ccc(-n2c(C)c(CNCc3ccc(C)o3)c(C(=O)O)c2C)cc1`: the “% Inhibition” value is on record as -12% and the Z score is reported as 1.55.

With `O=C(CN1C(=O)COc2ccccc21)N1CCN(c2ccccc2F)CC1`, the “% Inhibition” value is reported as -5% and the Z score is recorded as 0.61.

As to `CCn1c(C)c(-c2nc(C3CC3)no2)c(S(=O)(=O)NCc2ccco2)c1C`, the “% Inhibition” value is -11% and the Z score is reported as 2.19.

As to `CN(CC(=O)N[C@H]1CN(c2ncccn2)C[C@@H]1C1CC1)C1CCCC1`, the “% Inhibition” value worked out at 2% and the Z score is listed as -0.32.

Consider `Cc1cc(OC(=O)c2ccc(Cl)cc2)c(C)cc1CN1CCOCC1`, for which the “% Inhibition” value is recorded as -18% and the Z score was determined as 2.36.

Regarding `O=S(=O)(c1ccccc1Cl)N1CCC[C@H](c2nc(O)c3nnn(Cc4ccc(OC(F)(F)F)cc4)c3n2)C1`, the “% Inhibition” value was -1% and the Z score was 0.08.

For `Cc1nn(C)c(C)c1-c1cc(C(=O)NCc2c(F)cccc2Cl)n(C)n1`, the “% Inhibition” value is reported as -17% and the Z score came out at 1.68.

Consider `COCc1nc(-c2ccc(N3CCOCC3)cc2)n(CC(F)(F)F)n1`, for which the “% Inhibition” value is 1% and the Z score is -0.1.

With `Cc1ccccc1C(=O)N1CCC[C@H]1c1nc2cc(-c3ccccc3C(F)(F)F)ccc2o1`, the “% Inhibition” value is given as -20% and the Z score is reported as 1.99.

On to `Cc1ccc([C@H]2c3cc(OCc4nc(C(=O)NCC5CC5)cs4)ccc3CCN2C(=O)C2CCCC2)cc1`, for which the “% Inhibition” value is listed as -6% and the Z score was 0.96.

As for `C[C@H](NCC(C)(C)C(N)=O)c1cc(F)ccc1F`, the “% Inhibition” value turned out to be 1% and the Z score is reported as -0.1.

As to `COc1ccc(CNC(=O)Cn2cnc3c(c2=O)CN(Cc2ccc(C)cc2)CC3)cc1`, the “% Inhibition” value is reported as -13% and the Z score was determined as 1.62.

`CC1(C)C(=O)NCCN1C(=O)CCOCC(F)(F)C(F)F`: the “% Inhibition” value is listed as -12% and the Z score came to 1.04.

As for `Cc1cc(C)n(-c2ccc(CCC(=O)N3CCC(F)(F)CC3)cc2)n1`, the “% Inhibition” value was -12% and the Z score is 2.19.

As for `CCOC(=O)N1CCN(C(=O)CCc2n[nH]c(-c3ccc(OCc4cccc(F)c4)c(OC)c3)nc2=O)CC1`, the “% Inhibition” value is 23% and the Z score is given as -3.23.

Regarding `Cn1nnc2c1CCC(NC(=O)[C@H]1C[C@@H]1c1ccc(Cl)cc1)C2` (some centres not stated), the “% Inhibition” value is given as -5% and the Z score was 0.58.

As to `Cc1nnc(Cn2cnc3c2CCCC3)o1`, the “% Inhibition” value is listed as 7% and the Z score is recorded as -0.99.

With `O=C(C1CCN(S(=O)(=O)N2CCOCC2)CC1)N1CCC(Cc2nc(C3CCOCC3)no2)CC1`, the “% Inhibition” value was -16% and the Z score turned out to be 2.11.

On to `C[C@H](C(=O)N1CCN(c2ccccc2)CC1)C1CCN(S(=O)(=O)c2ccc(Cl)s2)CC1`, for which the “% Inhibition” value was 5% and the Z score is -0.64.

Consider `CCCn1c(C(=O)NCCN2CCOCC2)cc2cc(NC(=O)CC(C)(C)C)ccc21`, for which the “% Inhibition” value was -3% and the Z score is on record as 0.4.

As to `CCn1cc(S(=O)(=O)Nc2cccn3nc(C4CC4)nc23)cn1`, the “% Inhibition” value was -13% and the Z score was 1.42.

Consider `CC(C(=O)N1CCCc2cc(C#N)ccc21)C1OCCc2sccc21` (configuration not stated), for which the “% Inhibition” value is listed as -2% and the Z score is on record as 0.21.

With `COC(=O)C1(NC(=O)c2cnc(C)s2)CCCCC1`, the “% Inhibition” value was -11% and the Z score is given as 1.99.

`CC[C@@H](C(=O)N1CC(c2nc(-c3cccc(C(=O)NC)c3)no2)C1)c1ccccc1`: the “% Inhibition” value is on record as -1% and the Z score worked out at 0.11.

For the compound `CCOC(=O)CNC(=O)N1CCN(Cc2nc3cc(C)ccc3o2)CC1`, the “% Inhibition” value is given as -4% and the Z score was found to be 0.68.
